Assay results: patent US20080138329A1, “Inhibitors of Dna Methylation in Tumor Cells” (DKFZ Deutsches Krebsforschungszentrum, priority 2004, published 2008)

What was measured:
[1] = tested on: genomic DNA of HCT116 cells; assay: Genomic cytosine methylation level of HCT116 cells by capillary electrophoresis; assay type: cell-based, human; settings: 10 μM
Description: (§1) Analysis of genomic DNA methylation. DNA was isolated from cells using the DNeasy kit from Qiagen. Cytosine methylation levels were determined by capillary electrophoresis, as described previously (Stach, D., Schmitz, O. J., Stilgenbauer, S., et al. 2003. Nucleic Acids Res. 31, e2).

[2] = tested on: human hMLH1 gene; assay: Methylation-specific PCR of hMLH1 gene in HCT116 cells; assay type: cell-based; settings: 10 micromolar
Excerpt: RG108 causes demethylation in HCT116 cells. We have used methylation-specific PCR (Herman, J. G., Graff, J. R., Myohanen, S., Nelkin, B. D., Baylin, S. B. Methylation-specific PCR: a novel PCR assay for methylation status of CpG islands. Proc. Natl. Acad. Sci. USA. 1996, 93:9821-9826) to determine the effect of RG108 on the methylation of the human hMLH1 gene in HCT116 cells.

[3] = tested on: HCT116 cells; assay: Growth and viability of HCT116 cells (trypan blue counting); settings: 10 μM, 15 days
[4] = tested on: NALM-6 cells; assay: Growth and viability of NALM-6 cells (trypan blue counting); settings: 10 μM, 15 days
[5] = tested on: genomic DNA of NALM-6 cells; assay: Genomic cytosine methylation level of NALM-6 cells by capillary electrophoresis; assay type: cell-based, human; settings: 10 μM
Description: as §1

[6] = tested on: HCT116 cells; assay: Proliferation rate of HCT116 cells, counted after 5 days; assay type: cell-based, human; settings: increasing concentrations
Description: (§2) (a) Effect of increasing concentrations of RG108 on the proliferation rate of HCT116 cells. Equal amounts of cells were incubated with different concentrations of RG108 and counted after 5 days. Black bars represent results from 3 independent experiments, standard deviations are indicated by error bars. (b) Reactivation of the p16^INK4a gene (p16) in HCT116 cells treated with RG108. […] Untreated HCT116 cells expressed only the mutant allele of p16 (lower panel). (c) Effect of RG108 on the methylation and expression of various epigenetically silenced genes in HCT116 cells. Methylation-specific PCR (MSP) was used to analyze the methylation status of p16^INK4a, SFRP1 and TIMP-3 in DNA from cells incubated with 10 μM RG108. RT-PCT (RTP) was used to determine the expression level in cells incubated with 0, 10, 30 or 100 μM RG108, as indicated. β-Amyloid (βAm) was used as a loading control. (d) Effect of RG108 on the methylation status of centromeric satellite sequences. HCT116 cells were incubated with variable concentrations of RG108 (RG) or 5-azacytidine (aza), as indicated. The methylation status was analyzed by methylation-sensitive Southern analysis. The size of marker fragments (in kbp) is indicated on the sides of the panels, respectively.

[7] = tested on: p16INK4a, SFRP1 and TIMP-3; assay: Methylation (MSP) and expression (RT-PCR) of epigenetically silenced genes in HCT116 cells; assay type: cell-based, human; settings: MSP at 10 μM, RT-PCR at 0, 10, 30, 100 μM
Description: as §2
Total RNA was isolated from cells using Trizol reagent (Invitrogen). cDNA was synthesized by using the cDNA synthesis kit from Invitrogen. […]

[8] = tested on: centromeric satellite sequences; assay: Methylation-sensitive Southern analysis of centromeric satellite sequences in HCT116 cells; assay type: cell-based, human; settings: variable concentrations
Description: as §2, with “HCT116 cells were incubated with variable concentrations of RG108 (RG) or 5-azacytidine (aza), as indicated.” left out, “The size of marker fragments (in kbp) is indicated on the sides of the panels, respectively.” left out
The methylation status of satellite sequences was analyzed by methylation-sensitive Southern blots, as described previously (Rhee, I. et al. DNMT1 and DNMT3b cooperate to silence genes in human cancer cells. Nature, vol. 416, pp. 552-556 (2002)).

[9] = tested on: TIMP-3 CpG island; assay: Bisulfite sequencing of the TIMP-3 CpG island in HCT116 cells; assay type: cell-based, human; settings: 30 μM, 5 days, P<0.05 (t-test)
Description: Bisulfite sequencing was performed under standard conditions (Frommer, M., et al., 1992. A genomic sequencing protocol that yields a positive display of 5-methylcytosine residues in individual DNA strands. Proc. Natl. Acad. Sci. USA, 89: 1827-1831) with genomic DNA from HCT116 cells treated with 30 μM RG108 or no inhibitor for 5 days. The primers used and the PCR conditions were as follows: forward [NT], reverse [NT], 95° C. 3 min., 38 […]. 5 min. PCR products were purified using the QIAquick Gel Extraction Kit (Qiagen), sub cloned into the pCR 4-Topo plasmid vector (Invitrogen) and subjected to automated sequencing.

[10] = biological target: T1, M.SssI methylase (Spiroplasma monobiae, UniProt P15840); assay: In vitro DNA methylation assay with purified recombinant CpG methylase M.SssI; assay type: biochemical; settings: inhibitors at 10, 100, 200, 500 μM; BstUI restriction fragments
T1 construct: purchased New England Biolabs
Description: The effect of RG108 was analyzed in an in vitro DNA methylation assay. For this assay, the purified recombinant CpG methylase M.SssI was used. […] A 798 bp PCR fragment from the promoter region of the human p16/CDKN2A gene was used as a substrate and DNA methylation was visualized by digestion with the methylation-sensitive restriction enzyme BstUI. Thus, inhibition of
DNA methyltransferases can be detected by the appearance of unprotected, smaller restriction fragments (FIG. 2a).
The substrate DNA for the in vitro methylation assay was generated by PCR amplification of a 798 bp fragment from the promoter region of the huma p16/CDKN2 gene. The methylation reaction contained 350-400 ng substrate DNA (13-15 nM DNA, corresponding to 1.6-1.8 μM CpGs) in reaction buffer (50 mM NaCl, 10 mM Tris-HCl, 10 mM MgCl2, 1 mM dithiothreitol, pH 7.9), 80 μM S-adenosylmethionine, and 4 U of M.SssI methylase (0.5 μM, New England Biolabs) in a final volume of 50 μl. Inhibitors were added in concentrations of 10, 100, 200, and 500 μM, respectively. Reactions were performed at 37° C. for 2 hours. After completion, the reaction was inactivated at 65° C. for 15 min and the DNA was purified using the QIAquick PCR Purification Kit (Qiagen). 250 ng of purified DNA was digested for 3 h at 60° C. with 30 units of BstUI (New England Biolabs) and analyzed on 2% agarose gels.

T1 sequence (P15840 whole entry, the tested form may be a part): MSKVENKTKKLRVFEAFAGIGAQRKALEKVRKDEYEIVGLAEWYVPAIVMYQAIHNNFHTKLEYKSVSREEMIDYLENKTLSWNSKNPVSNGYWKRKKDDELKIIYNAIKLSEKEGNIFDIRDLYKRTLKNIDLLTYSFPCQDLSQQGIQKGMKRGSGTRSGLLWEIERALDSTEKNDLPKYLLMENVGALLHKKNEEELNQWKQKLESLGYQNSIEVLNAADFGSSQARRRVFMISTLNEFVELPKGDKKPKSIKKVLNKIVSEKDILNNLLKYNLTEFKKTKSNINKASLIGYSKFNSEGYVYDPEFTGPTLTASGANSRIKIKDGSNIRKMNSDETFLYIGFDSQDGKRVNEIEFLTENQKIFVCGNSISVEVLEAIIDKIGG

Row | Compound | demethylation of genomic DNA in HCT116 cells (in words) [1] | demethylation of the hMLH1 gene [2] | effect on growth and viability of HCT116 cells [3] | effect on growth and viability of NALM-6 cells [4] | demethylation of genomic DNA in HCT116 cells [1] [%] | reduction of DNA methylation in NALM-6 cells ([5]; after 5 days) [%] | reduction of DNA methylation in NALM-6 cells ([5]; after 15 days) [%] | proliferation of HCT116 cells [6] | demethylation and reactivation of euchromatic genes (tumor suppressor genes) [7] | demethylation of centromeric satellite sequences [8] | demethylation of CpG dinucleotides of the TIMP-3 CpG island [9] | inhibition of DNA methyltransferase activity in vitro, concentration series [10] | demethylation of genomic DNA in NALM-6 cells (in words) [5]
1 | Nc1ncn([C@@H]2O[C@H](CO)[C@@H](O)[C@H]2O)c(=O)n1 [5-azacytidine, reference compound] | similar | no demethylation | intermediate effect | highly toxic |  |  |  |  |  |  |  |  | 
2 | O=C(O)C(Cc1c[nH]c2ccccc12)N1C(=O)c2ccccc2C1=O (stereo not drawn) [RG108] |  | complete demethylation |  |  | 30 | 15 | 60 | reduces the proliferation | substantially demethylates and reactivates | not the centromeric satellite sequences | significant demethylation |  | 
3 | O=C1c2ccccc2C(=O)N1CCc1c[nH]c2ccccc12 [ΔC-RG108, reference compound] | failed to demethylate |  |  |  |  |  |  |  |  |  |  | failed to inhibit | failed to demethylate
